Test results taken from the supplement of paper PMC8183993.
Several values for one entry are separate records, joined by “and”; a condition that tells them apart may be missing. Identical values can stand only once. Counter-ions that a name gives are not always drawn. ± gives the standard deviation of the averaged measurements. The full ranking holds about 3,100 compounds; the median of “mean cytoplasmic OPP incorporation (global translation) relative to DMSO” is about 100, and the lowest 2% start at about 56. The list shows a part of the results. Square brackets hold non-standard residues; d marks the D form. Peptide text beside a SMILES is read from it. * marks the point of attachment. Sta = CC(C)C[C@H](N)[C@@H](O)CC(=O)O; Isovaleryl = CC(C)CC(=O)*

test system: U2OS; assay: mean cytoplasmic OPP incorporation (global translation) relative to DMSO (% of DMSO); higher = more protein synthesis; conditions: 10 µM; 24 h
Description: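 Primary image-based screen in U2OS cells: compounds at 10 uM for 24 h, then a 1 h o-propargyl-puromycin (OPP) pulse, click labelling, and high-throughput microscopy. Mean cytoplasmic OPP intensity and nuclei count were normalised to DMSO wells within each plate (DMSO = 100) and averaged over triplicate plates.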

| SMILES | mean cytoplasmic OPP incorporation |
| --- | --- |
| CCCCNc1ccc(C(=O)OCCOCCOCCOCCOCCOCCOCCOCCOCCOC)cc1 [Benzonatate] | 113 |
| Cc1cc([C@@H](C)Nc2ccccc2C(=O)O)c2nc(N3CCOCC3)cc(=O)n2c1 | 99.5 |
| O=C1c2ccccc2C(Cc2ccnc(F)c2)(Cc2ccnc(F)c2)c2ccccc21 | 98.4 |
| CCCCN1CCC(CCC(=O)c2cc(Cl)c(N)cc2OC)CC1 | 111 |
| Cc1cc(/C=C/c2ccc3cc(N(C)C)ccc3[n+]2C)c(C)n1-c1ccccc1 [Pyrvinium pamoate] | 22 |
| CCn1nc(C(=O)O)c(=O)c2cc3c(cc21)OCO3 [Cinoxacin] | 104 |
| CC[C@H]1OC(=O)[C@H](C)[C@@H](O[C@H]2C[C@@](C)(OC)[C@@H](O)[C@H](C)O2)[C@H](C)[C@@H](O[C@@H]2O[C@H](C)C[C@H](N(C)C)[C@H]2O)[C@](C)(O)C[C@@H](C)[C@@H]2N[C@@H](COCCOC)O[C@H]([C@H]2C)[C@]1(C)O [Dirithromycin] | 103 |
| CC(C)c1cc(-c2ccc(F)c3ccccc23)nc(N)n1 | 103 |
| O=C(NOC[C@H](O)CO)c1ccc(F)c(F)c1Nc1ccc(I)cc1F | 93.8 |
| Cc1cc(C)c(/C=C2\C(=O)Nc3ccccc32)[nH]1 [Semaxanib (SU5416)] | 89.7 |
| Cc1cc(C)c(/C=C2\C(=O)Nc3ccccc32)[nH]1 | 88.6 |
| CCn1ccnc1CC1COc2ccccc2O1 (stereo unspecified) [Imiloxan hydrochloride] | 91.2 |
| CNC(C)C1CCC(N)C(OC2C(N)CC(N)C(OC3OCC(C)(O)C(NC)C3O)C2O)O1 (stereo unspecified) [Gentamycin sulfate (Gentacycol)] | 107 |
| Cc1c(F)cc(C(=O)NC2CC2)cc1-c1ccc(C(=O)NCC(C)(C)C)cn1 [Losmapimod] | 99.2 |
| COc1ccc(S(=O)(=O)N(C(C)=O)c2ccccc2/C=C/c2cc[n+]([O-])cc2)cc1 | 89.5 ± 5.8 |
| Nc1nc(NCCc2ccc(O)cc2)nc2nc(-c3ccco3)nn12 | 99.2 |
| O=C(/C=C/c1ccc(CN(CCO)CCc2c[nH]c3ccccc23)cc1)NO [LAQ824 (NVP-LAQ824, Dacinostat)] | 47.7 |
| O=c1cc[nH]c(=S)[nH]1 [2-Thiouracil] | 101 |
| CC(C)CC(=O)N[C@H](C(=O)N[C@H](C(=O)N[C@@H](CC(C)C)[C@@H](O)CC(=O)N[C@@H](C)C(=O)N[C@@H](CC(C)C)[C@@H](O)CC(=O)O)C(C)C)C(C)C [Pepstatin A] (Isovaleryl-VV[Sta]A[Sta]-OH) | 101.8 ± 0.43 |
| N[C@H](C(=O)O)c1cc(O)cc(O)c1 | 102 |
| Cc1cccc(C#Cc2ccccc2)n1 [MPEP hydrochloride] | 103 |
| c1ccc(C(NCc2cccnc2)(c2ccccc2)c2ccccc2)cc1 | 104 |
| C[C@H](O)C(=O)Nc1c(I)c(C(=O)NC(CO)CO)c(I)c(C(=O)NC(CO)CO)c1I [Iopamidol] | 93.8 |
| COC(=O)C1=C(C)NC(C)=C(C(=O)OCCSc2ccccc2)C1C (stereo unspecified) | 110 |

| SMILES | mean cytoplasmic OPP incorporation |
| --- | --- |
| CC1Cc2ccccc2N1NC(=O)c1ccc(Cl)c(S(N)(=O)=O)c1 (stereo unspecified) [Indapamide] | 70.1 |
| CO/N=C(\C(=O)N[C@@H]1C(=O)N2C(C(=O)O)=C(Cn3ccc(=N)n3CCO)CS[C@H]12)c1csc(N)n1 [Cefoselis sulfate] | 98.3 |
| C=CC(=O)Nc1ccc2ncnc(Nc3cccc(Br)c3)c2c1 | 80.7 ± 1.2 |
| CO/N=C(\C(=O)N[C@@H]1C(=O)N2C(C(=O)O)=C(COC(N)=O)CS[C@H]12)c1ccco1 [Cefuroxime sodium salt] | 101 |
| O=C(NCC(O)CO)c1c(I)c(C(=O)NCC(O)CO)c(I)c(N(CCO)C(=O)CO)c1I (stereo unspecified) [Ioversol] | 102 |
| Nc1ccc(S(=O)(=O)Nc2ccnn2-c2ccccc2)cc1 [Sulfaphenazole] | 97.1 |
| COc1cc(/C=C(\C#N)C(N)=O)cc(CSc2nc3ccccc3s2)c1O | 109 |
| CCOCC(O)COc1ccc(NC(=O)CC[S+](C)C)cc1 (stereo unspecified) [Suplatast tosylate] | 97.5 |
| COc1cc(C#N)ccc1S(=O)(=O)Nc1ccc2c(c1)cc(C)c(=O)n2C | 109 |
| O=C(O)C1=CCCNC1 [Guvacine hydrochloride] | 106 |
| Cc1cc(CC(=O)O)n(C)c1C(=O)c1ccc(Cl)cc1 [Zomepirac sodium salt] | 91.7 |
| CCCCCCCCCCCCCCCC(=O)O[C@@H]1[C@@H](O)[C@@H](O)[C@@H]([C@H](NC(=O)[C@@H]2C[C@@H](CCC)CN2C)[C@H](C)Cl)O[C@@H]1SC [Clindamycin palmitate HCl] | 106 |
| CC(C)=CCC/C(C)=C/CC/C(C)=C/CSCC(=O)O [Farnesylthioacetic acid] | 96.1 |
| CC#CCOC(=O)C1=CCCN(C)C1 [Arecaidine but-2-ynyl ester tosylate] | 97.6 |
| C[C@H](CCC(=O)O)[C@H]1CC[C@H]2[C@@H]3CC[C@@H]4C[C@H](O)CC[C@]4(C)[C@H]3C[C@H](O)[C@]12C [Deoxycholic acid] | 99.4 |
| C[C@H](CCC(=O)O)[C@H]1CC[C@H]2[C@@H]3CC[C@@H]4C[C@H](O)CC[C@]4(C)[C@H]3C[C@H](O)[C@]12C [Sodium Deoxycholic acid] | 114 |
| O=C(NCCS(=O)(=O)c1ccc(C(F)(F)F)cn1)c1ccc(Cl)cc1 | 96.6 |
| C=C1CC[C@H](O)C/C1=C/C=C1\CCC[C@]2(C)[C@@H]([C@H](C)CCCC(C)(C)O)CC[C@@H]12 [Calcifediol] | 103 |
| C=C1CC[C@H](O)C/C1=C/C=C1\CCC[C@]2(C)[C@@H]([C@H](C)CCCC(C)(C)O)CC[C@@H]12 [25-Hydroxyvitamin D3] | 110 |
| CC(C)CC(=O)Nc1n[nH]c2c1CN(C(=O)C1CCN(C)CC1)C2(C)C | 65.9 |
| OC(c1ccccc1)C1CCN(CCc2ccccc2)CC1 (stereo unspecified) | 98.2 |
| COc1ccc(NC(=O)c2cc(OCCCN(C)C)nn2Cc2ccccc2)cc1 [CFM 1571 hydrochloride] | 102 |
| Nc1nc(=O)c2nc(CNc3ccc(C(=O)N[C@@H](CCC(=O)O)C(=O)O)cc3)cnc2[nH]1 [Folic acid] | 104 |
| CC(=O)N[C@@H](CC(C)C)C(=O)O [N-Acetyl-L-leucine] | 104 |

| SMILES | mean cytoplasmic OPP incorporation |
| --- | --- |
| Nc1nc(F)nc2c1ncn2[C@@H]1O[C@H](CO)[C@@H](O)[C@@H]1O [Fludarabine (Fludara)] | 99.4 |
| Nc1nc(F)nc2c1ncn2[C@@H]1O[C@H](CO)[C@@H](O)[C@@H]1O [Fludarabine] | 101.3 ± 0.22 |
| CC[C@H]1OC(=O)[C@H](C)[C@@H](O[C@H]2C[C@@](C)(OC)[C@@H](O)[C@H](C)O2)[C@H](C)[C@@H](O[C@@H]2O[C@H](C)C[C@H](N(C)C)[C@H]2O)[C@](C)(O)C[C@@H](C)/C(=N\OCOCCOC)[C@H](C)[C@@H](O)[C@]1(C)O [Roxithromycin] | 107 |
| CC[C@H]1OC(=O)[C@H](C)[C@@H](O[C@H]2C[C@@](C)(OC)[C@@H](O)[C@H](C)O2)[C@H](C)[C@@H](O[C@@H]2O[C@H](C)C[C@H](N(C)C)[C@H]2O)[C@](C)(O)C[C@@H](C)/C(=N\OCOCCOC)[C@H](C)[C@@H](O)[C@]1(C)O [Roxithromycin (Roxl-150)] | 113 |
| CN(C)Cc1c(C(=O)NCCOc2ccc(C(=O)NO)cc2)oc2ccccc12 | 56 |
| Nc1nc(=S)c2ncn([C@@H]3O[C@H](CO)[C@@H](O)[C@H]3O)c2[nH]1 [Thioguanosine] | 61 |
| O=C1CN2Cc3c(ccc(Cl)c3Cl)N=C2N1 [Anagrelide HCl] | 103 |
| Nc1nc(Cl)nc2c1ncn2[C@@H]1O[C@H](CO)[C@@H](O)[C@@H]1F [Clofarabine] | 85.8 |
| Cc1cc(C)c(N(Cc2ccccc2)S(=O)(=O)c2ccc(OCCNC(=O)c3cc4ccccc4o3)cc2)c(C(=O)NO)c1 | 103 |
| COc1ccc(-c2cc(=O)c3c(O)cc(O)cc3o2)cc1O [Diosmetin (Luteolin 4-methyl ether)] | 116 |
| C[C@@H](N)[C@H]1CC[C@H](C(=O)Nc2ccncc2)CC1 | 101 and 99.2 |
| c1cnc2cc3c(cc2n1)[C@@H]1CNC[C@H]3C1 [Varenicline tartrate] | 102 |
| O=C(Cn1ccnc1[N+](=O)[O-])NCCO [Etanidazole] | 84.7 |
| CCc1cc(C(C)=O)c(O)cc1OCCCCCC(C)(C)c1nn[nH]n1 | 98.2 |
| C[C@H](NC(=O)c1sccc1OCc1ccc(Cl)cc1)c1ccccc1 | 107 |
| CO[C@H]1/C=C/O[C@@]2(C)Oc3c(C)c(O)c4c(c3C2=O)C2=NC3(CCN(CC(C)C)CC3)NC2=C(NC(=O)/C(C)=C\C=C\[C@H](C)[C@H](O)[C@@H](C)[C@@H](O)[C@@H](C)[C@H](OC(C)=O)[C@@H]1C)C4=O [Rifabutin] | 116 |
| CO[C@H]1/C=C/O[C@@]2(C)Oc3c(C)c(O)c4c(c3C2=O)C2=NC3(CCN(CC(C)C)CC3)NC2=C(NC(=O)/C(C)=C\C=C\[C@H](C)[C@H](O)[C@@H](C)[C@@H](O)[C@@H](C)[C@H](OC(C)=O)[C@@H]1C)C4=O [Rifabutin (Mycobutin)] | 113 |
| O=c1cc(-c2ccc(O)cc2)oc2cc(O)cc(O)c12 [Apigenin] | 103 ± 6.7 |
| CC(C)n1nc(-c2cc3cc(O)ccc3[nH]2)c2c(N)ncnc21 [Torkinib (PP242)] | 52.5 |
| NC(=O)N1c2ccccc2C=Cc2ccccc21 [Carbamazepine] | 102 |
| N#Cc1ccccc1OCC(O)CNCCNC(=O)Nc1ccccc1 (stereo unspecified) | 110 |
| CNc1nc(Nc2cnn([C@H]3CCN(C4COC4)C[C@@H]3F)c2Cl)ncc1C(F)(F)F | 97.9 |
| Clc1ccc(C(Cn2ccnc2)OCc2c(Cl)cccc2Cl)c(Cl)c1 (stereo unspecified) [Isoconazole] | 103 |
